# Results taken from PubChem BioAssay AID651820 (National Center for Advancing Translational Sciences (NCATS), 2012).
# In all, about 340,000 compounds went through this assay and about 12,000 (3.5%) were called active. The inconclusive results got no clear call from the source; some entries with a clear call stand among them for comparison. Calls come from the whole dose curve; as a rule, active = well fitted inhibition curve with a large enough effect; inconclusive = small, poorly fitted or top-dose-only effect, or another doubt; inactive = no such curve, though single readings can be large or run the other way. No potency is given beside an inconclusive call; the fits are too rough.
# Assay: qHTS Assay for Inhibitors of Hepatitis C Virus (HCV)
# Settings: Huh7.5.1 HCVcc-Cre (HCVcc is cell-culture hepatitis C virus) infection, luciferase reporter, 44 h; series mostly up to 41.8 µM
# How it was run: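 Antiviral activity was scored by luciferase reporter output from cells infected with HCVcc-Cre (~0.5 moi) in presence of compound, 44 h infection period, cells seeded 1,000/well 4 h prior.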
# Potency is the fitted concentration of half-maximal effect; tags give direction and shape of the fitted curve.
row,Structure (SMILES),Potency
1,COc1cc2c3nnc(-c4ccc(F)cc4)c-3cn(Cc3cccc(F)c3)c2cc1OC,"inconclusive [inhibitor, partial curve]"
2,COc1ccc(-c2cc(C)no2)cc1S(=O)(=O)N(C)c1ccc(C)c(C)c1,"inconclusive [inhibitor, single point]"
3,COc1cccc2cc(C(=O)NCCc3c[nH]c4ccccc34)c(=O)oc12,"inconclusive [inhibitor, single point]"
4,Cc1ccnc2nc(C(=O)OCC(=O)c3ccc(Cl)cc3)nn12,inactive
5,CCN(CC(=O)Nc1ccccc1C(F)(F)F)C(=O)c1oc2c(Cl)cccc2c1C,"inconclusive [inhibitor, single point]"
6,Cc1c(Cl)cccc1NC(=S)NCCc1ccc(Cl)cc1,active: 10 µM
7,N#Cc1cccc(Nc2c3c(nc4ccccc24)CCC3)c1,"inconclusive [inhibitor, partial curve]"
8,CC(/C=N/NC(=O)Cn1nnc(N)n1)=C\c1ccc(C(C)C)cc1,inactive
9,COc1ccc(OCC(=O)Nc2ccc(NC(=O)c3cccs3)cc2)cc1,inactive
10,Cc1ccc(OCCOc2cccc(C=C3C(=O)NC(=O)NC3=O)c2)cc1,inactive
11,O=C(Cc1ccc(Nc2nc3ccc(Br)cc3[nH]2)cc1)NCCc1cccs1,"inconclusive [inhibitor, partial curve, poor fit]"
12,CCOc1ccc(NC(=O)c2ccc(NCC(=O)N3CCCCCC3)cc2)cc1,"inconclusive [inhibitor, single point]"
13,CC(C)COc1cccc(C(=O)N(CC(=O)Nc2ccccc2C(F)(F)F)Cc2ccco2)c1,"inconclusive [inhibitor, partial curve]"
14,CCOC(=O)c1c(NC(=O)CSc2nncs2)sc(C)c1-c1ccccc1,"inconclusive [inhibitor, partial curve]"
15,CCOC(=O)c1sc(NC(=O)CN(CC(C)C)CC(C)C)c(C(=O)OCC)c1C,inactive
16,O=C(CSC1=NS(=O)(=O)c2ccccc21)Nc1ccccc1,inactive
17,O=C(Nc1cc2c3c(c1)CC(=O)N3CCC2)c1ccccc1C(F)(F)F,"inconclusive [inhibitor, single point]"
18,CCN(CC)CC(O)COCCC12CC3CC(CC(C3)C1)C2 (stereo unspecified),"inconclusive [inhibitor, partial curve]"
19,CSc1ccccc1NC(=O)c1cccnc1,inactive
20,Cc1ccc(S(=O)(=O)N2CCN(c3cc4c(cc3[N+](=O)[O-])n(C)c(=O)n4C)CC2)cc1,"inconclusive [inhibitor, single point]"
21,CSc1ccc(C(=O)N2CCc3ccc(NC(=O)c4ccccn4)cc3C2)cc1,"inconclusive [inhibitor, single point]"
22,Cc1ccc2cccc(OCC(=O)Nc3cccc(S(=O)(=O)N4CCCC4)c3)c2n1,active: 5.62 µM
23,COc1cc2c(cc1OC)CN(c1nc(-c3cccnc3)nc3ccccc13)CC2,active: 14.1 µM
24,O=C(c1ccc2ccccc2c1)C1CCCN(S(=O)(=O)c2cccnc2)C1 (stereo unspecified),"inconclusive [inhibitor, single point]"

row,Structure (SMILES),Potency
1,Nc1c(C(=O)NCCc2ccccc2)sc2nc(N3CCOCC3)c3c(c12)CCCC3,"inconclusive [inhibitor, partial curve]"
2,CCOC(=O)c1cnc(-c2ccccc2)nc1N,"inconclusive [inhibitor, single point]"
3,Cc1ccc2nc(-c3ccc(NC(=O)CSc4ccccc4)cc3)[nH]c2c1,active: 11.2 µM
4,CCn1cc(C(=O)NCCCN2CCCC2)c(=O)c2cc(S(=O)(=O)N3CCc4ccccc4C3)ccc21,active: 14.1 µM
5,CCOc1cccc(OCCOCCN(C)C)c1,"inconclusive [inhibitor, single point]"
6,CC(=O)Nc1cccc(-c2csc(Nc3cc(C)ccn3)n2)c1,"inconclusive [inhibitor, single point]"
7,Cc1ccc2c(c1)C(O)(CC(=O)/C=C/C=C/c1ccccc1)C(=O)N2 (stereo unspecified),inactive
8,Cc1nc(Cl)sc1C(=O)Nc1ccc(F)cc1,inactive
9,CC(=O)OC1CC2(O)C3CCC4CC(O)CCC4(C)C3CCC2(C)C1C1=CC(=O)OC1 (stereo unspecified),"inconclusive [inhibitor, full curve]"
10,Cc1ccc(-c2nc(-c3cccnc3)sc2CC(=O)Nc2ccc3nc(C)sc3c2)cc1,inactive
11,CCCCC(=O)OCC(=O)c1[nH]c(C)c(C(C)=O)c1C,inactive
12,Cc1cc(C)cc(NC(=O)Nc2ccc(NC(=O)c3ccccc3O)cc2)c1,"inconclusive [inhibitor, partial curve]"
13,Cc1cc(Nc2cccc(F)c2)nc(-c2ccccc2O)n1,active: 4.47 µM
14,COc1ccc(CNC(=O)CCCn2c(=S)[nH]c3cc4c(cc3c2=O)OCO4)cc1,"inconclusive [inhibitor, full curve, poor fit]"
15,COc1ccc([N+](=O)[O-])cc1NC(=O)c1ccc(-n2nc(C)cc2C)cc1,"inconclusive [inhibitor, partial curve]"
16,O=C(Nc1ccc(Br)cc1F)c1cccnc1,"inconclusive [inhibitor, partial curve]"
17,CCCN1C2CCCC1CC(NC(=O)Nc1ccc(C(C)C)cc1)C2 (stereo unspecified),"inconclusive [inhibitor, partial curve]"
18,CCC(Oc1ccc(C)cc1)C(=O)Nc1ccc(S(=O)(=O)Nc2nccs2)cc1 (stereo unspecified),"inconclusive [inhibitor, single point]"
19,CC(CCc1ccccc1)NC(=O)CN(C)Cc1ccc(F)cc1 (stereo unspecified),inactive
20,Cc1ccc(-c2csc(=Nc3cccnc3)n2CCCN2CCCC2=O)cc1C,"inconclusive [inhibitor, partial curve, poor fit]"
21,Cn1nnnc1SCC(=O)N1c2ccccc2Sc2ccccc21,inactive
22,O=C(Nc1ccccc1N1CCN(C(=O)c2ccc(Cl)cc2)CC1)c1ccc(Br)cc1,"inconclusive [inhibitor, single point]"
23,CC(=O)Nc1cccc(NC(=O)Nc2cccc(F)c2)c1,inactive
24,Cc1ccc(Nc2nc(N)nc(CN3CCCCCC3)n2)c(C)c1,"inconclusive [inhibitor, single point]"

row,Structure (SMILES),Potency
1,CC(C)(C)Nc1nc(NN)nc(NC(C)(C)C)n1,"inconclusive [inhibitor, partial curve]"
2,COc1ccc(S(=O)(=O)N2CCCC2C(=O)Nc2nc3c(s2)CCCC3)cc1 (stereo unspecified),"inconclusive [inhibitor, single point]"
3,COC(=O)CCC(=O)N1CCCC(CO)(Cc2ccccc2C)C1 (stereo unspecified),inactive
4,COc1ccc(OC)c(N/C(N)=N/c2nc(C)cc(C)n2)c1,"inconclusive [inhibitor, single point]"
5,Cc1cccnc1NC(=O)c1ccccc1-c1ccccc1C(=O)Nc1ncccc1C,inactive
6,Cc1ccc(NC(=S)NNS(=O)(=O)c2ccc3ccccc3c2)cc1Cl,inactive
7,O=C(CCc1ccncc1)N1CCCC(Nc2ccc(F)c(F)c2)C1 (stereo unspecified),inactive
8,COc1ccc2[nH]c3c(c2c1)CCN1C(=O)C(CC(=O)NCC24CC5CC(CC(C5)C2)C4)C[C@H](C(=O)N2CCCCC2)[C@@]31C (stereo partly specified),active: 25.1 µM
9,O=C1/C(=C\c2ccc(-c3ccccc3[N+](=O)[O-])o2)C(c2ccccc2)=NN1c1ccccc1,inactive
10,COc1ccc(N2CC(C(=O)NCCC3=CCCCC3)CC2=O)c(OC)c1 (stereo unspecified),"inconclusive [inhibitor, partial curve]"
11,Brc1ccc(-n2cnc(-c3ccccc3)c2)cc1,"inconclusive [inhibitor, partial curve]"
12,Cc1ccc(C(=O)O/N=C(\N)Cc2cccs2)c(Cl)c1,"inconclusive [inhibitor, single point]"
13,CCOc1cc(C(=O)OCC(=O)Nc2ccc(SC(F)F)cc2)cc(OCC)c1OCC,"inconclusive [inhibitor, partial curve]"
14,COc1ccc(Cl)cc1NC(=O)CN(c1ccccc1)S(=O)(=O)N(C)C,"inconclusive [inhibitor, single point]"
15,Cc1ccc(CSC2=Nc3ccccc3C3=NC(CC(=O)NCc4ccco4)C(=O)N23)cc1 (stereo unspecified),"inconclusive [inhibitor, single point]"
16,CCSc1ncc(/C=N/Nc2ccc(Cl)cc2)n1C,"inconclusive [inhibitor, single point]"
17,CCOc1ncccc1C(=O)Nc1ncc(C)s1,"inconclusive [inhibitor, single point]"
18,CC(C)[C@H](NC(=O)c1ccccc1F)C(=O)OCC(=O)Nc1sccc1C(N)=O,"inconclusive [inhibitor, full curve, poor fit]"
19,O=C(COc1ccc(S(=O)(=O)N2CCCCC2)cc1)N1CCCC1,inactive
20,CC(C)(C)C(=O)OCc1nc(-c2ccc(F)cc2)cs1,inactive
21,CNc1sc(C(=O)c2ccc(F)cc2)c(N)c1-c1nc2ccccc2s1,"inconclusive [inhibitor, partial curve]"
22,COc1ccccc1NC(=O)COC(=O)C1C2CC3OC(=O)C1C3C2 (stereo unspecified),"inconclusive [inhibitor, full curve]"
23,O=C(NNC(=S)NC(=O)c1cccs1)c1ccc(NC(=O)c2ccccc2)cc1,"inconclusive [inhibitor, partial curve]"
